{"source": "PubChem BioAssay (NCI)", "test_system": "NCI-H226 lung", "experiment": "NCI-60 one-dose screen, 48 h (100 = growth as untreated, 0 = no growth, -100 = all killed)", "note": "Some structures have more than one record in an assay (separate samples or runs), and their calls can disagree.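 Single-concentration screen, 48 h exposure, 96-well plates. Endpoint: percent growth. Below 10 = active.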 Some entries of the source have several records that differ or are many. This list holds those alone. There may be further records. This drug was run again and again over the years, at its own concentration, as given; each value is one run. Signs of the kind (2×) count equal records among those shown.", "data": [{"smiles": "COc1cccc2c1C(=O)c1c(O)c3c(c(O)c1C2=O)C[C@@](O)(C(=O)CO)C[C@@H]3OC1CC(N)C(O)C(C)O1", "note": "(stereo not given in full)", "values": [{"measurement": "growth", "setting": "0.25 µM, runs of 2009", "value": "active: -21.6, -19.4, 0.224, -15.2, -19.3, 2.75, 9.97, 0.689, 1.33, 2.63, -9.31, -0.801, -1.51, -10.3, -9.46, 2.49, -22.7, -0.36, -7.61, -17.5, -15.1, -24.3, -34.9, -7.52, -28.7, -47.9, -6.51, -13.2, -31.9, -42.4, -8.8, -9.38% and inactive: 41.6, 46.2, 21, 14.5, 12.8 (2×), 17.1, 20.8, 17.9, 10.9, 26.9, 27.8 (2×), 27.2, 19.8, 21.1, 32.1, 28.6, 21.9, 40.3, 61.6, 45.3, 45.4, 57.8, 48, 29, 22, 33.5, 14.4, 25.5, 18.4, 17.7, 43.7, 29.7, 44.9, 12.7, 26.8, 23.7%"}, {"measurement": "growth", "setting": "0.25 µM, runs of 2010", "value": "active: -7.35, -5.65, -4.53, -8.1, 5.71, 4.7, -23, 6.15, 8.17, -25.2, -22.9, 2.5, 9.46, 2.17, 3.53, 2.4, -7.93, 0.691, -4.14, -11.9, -52.8, -32.4, -9.8, 0.571, -8.4, 8.06, -1.92, 2.45, 5.26, 0.456, -4.5, -18.6, -18.4, -16, -10.6, -6.05% and inactive: 17.3, 13.5, 12.7, 24.4, 31.6, 37.9, 11.9, 18.5, 12.9 (2×), 34.6, 29.3, 33.6, 18.6, 16.4, 24, 21.3%"}, {"measurement": "growth", "setting": "0.25 µM, runs of 2011", "value": "active: -2.94, 4.53, 8.12, -2.32, -22.5, -16.6 (2×), -28, -13, -36.3, 9.92, -14.1, -36.7, -12.7, -7.04, 6.24, -6.62, -8.85, -11, -18, -12.2, 2.42, -8.92, -38.1, 1.43, 4, -3.92, -9.79, -12.6, -15.2, -32.5 (2×), 2.92, -7.79, -15.8, 6.66, 3.97, -4.06, -31.9, -5.97, 5.91, -11.7% and inactive: 18.4, 24.4, 29, 21.1, 17.8, 28.8 (2×), 18, 48, 46.9, 23.8, 25.8, 43, 14.8, 26%"}, {"measurement": "growth", "setting": "0.25 µM, runs of 2012", "value": "active: -5.08, -23.1 (2×), -37.9, -26.9, -5.74, -47.8, -43.9, -28.3, -68.2, -61.9, -67.5, -64, -53.1, -46.3, -43.7, -47, 4.98% and inactive: 17.9, 22.3, 15.7, 29, 47.6 (2×), 58.5, 38.8, 29.9 (2×), 49.6 (2×), 48.2, 59.7, 41.7, 49.1, 53.5, 50.3, 47.8, 33.7, 49.2, 21.2, 51.5, 32.9, 20.3, 37.8, 53.7, 52.7, 54.8, 53.1, 63.7, 63.4, 58.1, 57.3, 55.3, 64.1, 33.4 (2×), 27.1, 42.6, 24.5, 46.5, 46.6, 37, 25, 31.2, 45.1, 29.3, 31.1%"}, {"measurement": "growth", "setting": "0.25 µM, runs of 2013", "value": "inactive: 18.8 (2×), 32.9, 21.6, 12.3, 20.3, 23.2, 35.2 (2×), 15.9, 19.4, 28.8, 31.8, 22.7, 36.5 (2×), 26, 41.8, 32.3, 11.4, 14.2, 22.2 (2×), 24.4, 26.9, 36.2 (2×), 25.5, 28.7, 22.8, 40, 37.1 (2×), 31.1, 48.1, 53, 41.7, 46.8, 36.4, 52.5, 36.1, 41.1, 38, 42.5, 42.3, 48.3, 44.1, 41.6, 36.3, 31.7, 22.6 (2×), 37.6, 36.6, 33.6, 16.4, 12.7, 14.8, 21.4, 18.7, 13.5, 32.7, 25.6, 30.9, 12.6, 21.7, 11.5, 12.5% and active: 8.74, -18.6, 5.7, 5.15, -8.86, -2.93, -5.77, -8.44%"}, {"measurement": "growth", "setting": "0.25 µM, runs of 2014", "value": "active: -5.1, -2.44, -24.4, -20.7 (2×), -29.3, -5.31, -16.2, 6.25, -15.4, -16.6, 4.08, 2.38, -41.6, -38.9, -45.7, -42.5, -25.8, -24.7, -20.3, -11.6, -5.02, 2.66, -6.07, -5.86, 5.16, 3.9, 7.5, 6.95, 2.07, 3.59, 6.6, 6.37, 9.3 (2×), 4.82, 1.09, -5.18, -21.2, -45.9, -35, -16.5, -0.409, -38, -32.8, -29.5, 3.87, -25.4, -12.9, -15.9, -12.1, -18.4, -9.68, -6.98, -23.2, 1.36, -16.4, -1.08, -11.9, 4.42, 3.01, -19.6, -14.9, 7.33% and inactive: 17.4, 12.7 (2×), 37.8, 17.2, 33.8, 19.8, 13.2, 25.2 (2×), 16.5, 22.8, 21.4, 15.8, 10.3, 14.4, 36.8, 28.8%"}, {"measurement": "growth", "setting": "0.25 µM, runs of 2015", "value": "active: 8.24, 5.25, 0.736, -11.8, -1.88, 7.88, -9.11, -11.3, 8.02, -17.5, -1.74, -9.43, -28.1, -17.8, 5.31, -33.5, -2.56, -12.7, 6.58, -2.91, 3.64, 0.88, 0.659, 6.3, 1.05, -5.7, -3.17, 7.06, 5.97, 6.73% and inactive: 17, 27.2, 14.6 (2×), 23.1, 42, 10.9, 24.5, 48.6, 50.2, 44.2, 44, 48.2, 50.6, 38.5, 36.8, 24.1 (2×), 19.6, 20.3, 13.3, 32.8, 23.8, 18, 18.2, 16.5, 14.5, 20.9, 18.7, 32.6, 27.6, 17.7, 37, 28.5 (2×), 19.8, 12.7, 31.3, 27.8, 23.7, 21.3, 21.5, 30.2, 22, 39, 29.1, 17.4, 14, 31.1, 23, 19.7, 28.4%"}, {"measurement": "growth", "setting": "0.25 µM, runs of 2016", "value": "inactive: 31.3 (2×), 29.6, 27.1, 38.8, 45.9, 54.5, 51.5, 35.8 (2×), 39.4, 30.3, 34.1, 35.1, 30.6, 38, 17.4, 14.6, 12, 10.3, 11.4 (2×), 20.9, 20.5, 46.1 (2×), 53, 21.2, 49.4, 41.1, 40.9, 41, 39.1, 32.9, 39, 20.4, 26.9, 26.6, 14.2, 25.2, 16.4, 16.6, 13, 23.5, 15.3, 33.5, 31.1, 36.4, 26.5, 36.5, 57.9, 33.1, 27.4, 11.7, 60.8, 53.8, 40.2, 46.2, 41.5, 38.5, 45.3, 44.9, 52.9, 54.6% and active: -4.21 (2×), 2.72, 6.8, -2.73, 4.01, -7.01, 8.57, 8.54, -18.2, -21.3, -9.52, -3.99 (2×), -16, -2.94, -13.9, -9.79, 8.11, -4.47, 7.57%"}, {"measurement": "growth", "setting": "0.25 µM, runs of 2017", "value": "inactive: 56.1, 61.6, 55.4, 53.6, 57.7, 44, 35.8, 36.4, 27.5, 36.2, 18.5, 22.1, 18.4, 21.7, 27.2, 29.6, 35.9, 32.8, 45.4, 46.9, 54.9, 53.4, 46.3, 42.3, 32.7, 21.3, 26.8, 12.3, 18.1, 11 (2×), 25.1, 16.8, 13.1, 21.5, 17.9, 18.8, 15.1, 17.4, 27.3, 23.3, 45.2, 38.4, 46.2, 46.7, 44.8, 43.8, 50.8, 39.5, 47.3, 18, 31.6, 14.1, 11.6, 20.8, 16.6, 11.4, 14.4, 19.5, 16.4, 22.4, 29.1, 25, 10.9, 13.8% and active: 7.13, 0.384, 4.06, 4.96, 4.41, 9.04, 3.1, 3.65, 6.48, 5.07, 5.1, 2.27, -0.245%"}, {"measurement": "growth", "setting": "0.25 µM, runs of 2018", "value": "inactive: 45.6, 45.2, 42.4, 44, 35.1, 33.7 (2×), 29.6 (2×), 24.4, 26.5, 21.8, 40.5, 39.2, 35.3 (2×), 48.8, 42.2, 46.9, 47.8, 40.7, 25.3, 24.6, 22.1, 37.6, 24, 31.7, 26.3, 21.9, 29.5, 19.2, 23, 20.7, 20.2, 17.3, 29.2, 16.7% and active: -1.31, 3.07, -9.79, 4.66, -8.21, -12.8, -16.2, -7.55, -19.3, -4.79, -8.64, -20.9, -22.7, -33.7, -26%"}, {"measurement": "growth", "setting": "0.25 µM, runs of 2019", "value": "active: -29.6, -26.6, -19.3 (2×), -22.3, -23.9, -24.8, -12.2, 0.672, 3.15, -2.44, -24.1, -18, -23.1, -30.4, -21, -15.8, -14.6, -22.6% and inactive: 43.1, 35.6, 31.8, 33.5, 25.8, 30.7, 35.5, 41.6, 40.5, 40.4, 20.7, 29.4, 32.3, 31.1, 25.6, 39.9, 38.8, 40.3, 12, 13.5, 21.3, 21.5%"}, {"measurement": "growth", "setting": "0.25 µM, runs of 2020", "value": "inactive: 34.3 (2×), 30.8, 20.7, 14.8, 13.7, 12.3, 17.5, 15, 25.1, 18.5, 33.7, 46.2, 31.8, 41.6, 28.4, 22.4, 24.1, 22.3, 15.8, 12.4, 23.7% and active: 1.45%, -2.75%, 5.32%"}, {"measurement": "growth", "setting": "0.25 µM, runs of 2021", "value": "inactive: 10.4, 35.8, 18.3, 13.8, 35.5, 47.7, 41.6, 38.4, 15.3 (2×), 30.1, 23.3, 11.3, 37.2, 36.2, 37.1, 29.8, 23.4, 19.4, 40.9, 25.2, 33.4, 38.6, 35.7% and active: 6.81, -1.71, 7.33, -18.8, -9.96, -0.162, 2.31, -7.01, -4.03, -9.22, -8.87, -1.03, 1.11, 6.39, 2, 2.16, -7, -5.55, -10.6, -25.5, -16.6, -45.3, -34, -44.9, -62, -79.3%"}, {"measurement": "growth", "setting": "0.25 µM, runs of 2022", "value": "active: -23.3, -19.6, -56.1, -14.4, 7.86, 4.64, -5.9, -21.7, -30.9, -38.1, -9.97, -12.6, -15.1, 2.76, -27.4% and inactive: 33.9, 19.2, 13.1, 25.3, 17.6, 28.6, 10.1, 45.3, 56.4, 23.6, 47.5, 51.7, 66.9%"}, {"measurement": "growth", "setting": "25 µM, runs of 1991", "value": "active: -55.3, -73.4, -70, -69.6 (2×), -68.7, -78.7, -29, -75.1, -71.2, -74, -18.1, -63.8, -65.3, -53.1, -64, -36.9%"}]}]}
